{
  "source": "PubChem BioAssay AID504333",
  "about": "(National Center for Advancing Translational Sciences (NCATS), 2011)",
  "note": "Where “and” joins values, the source holds several entries; their conditions need not be identical. Identical values can stand only once. Among all 360,000 compounds or so, about 16,000 (4.4%) were called active. Inconclusive results, whose numbers are uncertain, are shown with a selection of clear calls. Calls follow the shape of the dose curve; as a rule, active = well fitted inhibition curve with a large enough effect; inconclusive = small, poorly fitted or top-dose-only effect; inactive = no such curve, though single readings can be large or run the other way. Potencies of inconclusive entries are doubtful fits and often do not repeat. % is scaled to controls: 0 for no effect and ±100 for the full control effect; potency is read from the fitted curve at half-maximal effect; tags tell the direction and shape of the fitted curve.",
  "data": [
    {"target": "Bromodomain adjacent to zinc finger domain protein 2B (Homo sapiens) (UniProt Q9UIF8)", "sequence (Q9UIF8 whole entry, looked up, the tested form may be a part)": "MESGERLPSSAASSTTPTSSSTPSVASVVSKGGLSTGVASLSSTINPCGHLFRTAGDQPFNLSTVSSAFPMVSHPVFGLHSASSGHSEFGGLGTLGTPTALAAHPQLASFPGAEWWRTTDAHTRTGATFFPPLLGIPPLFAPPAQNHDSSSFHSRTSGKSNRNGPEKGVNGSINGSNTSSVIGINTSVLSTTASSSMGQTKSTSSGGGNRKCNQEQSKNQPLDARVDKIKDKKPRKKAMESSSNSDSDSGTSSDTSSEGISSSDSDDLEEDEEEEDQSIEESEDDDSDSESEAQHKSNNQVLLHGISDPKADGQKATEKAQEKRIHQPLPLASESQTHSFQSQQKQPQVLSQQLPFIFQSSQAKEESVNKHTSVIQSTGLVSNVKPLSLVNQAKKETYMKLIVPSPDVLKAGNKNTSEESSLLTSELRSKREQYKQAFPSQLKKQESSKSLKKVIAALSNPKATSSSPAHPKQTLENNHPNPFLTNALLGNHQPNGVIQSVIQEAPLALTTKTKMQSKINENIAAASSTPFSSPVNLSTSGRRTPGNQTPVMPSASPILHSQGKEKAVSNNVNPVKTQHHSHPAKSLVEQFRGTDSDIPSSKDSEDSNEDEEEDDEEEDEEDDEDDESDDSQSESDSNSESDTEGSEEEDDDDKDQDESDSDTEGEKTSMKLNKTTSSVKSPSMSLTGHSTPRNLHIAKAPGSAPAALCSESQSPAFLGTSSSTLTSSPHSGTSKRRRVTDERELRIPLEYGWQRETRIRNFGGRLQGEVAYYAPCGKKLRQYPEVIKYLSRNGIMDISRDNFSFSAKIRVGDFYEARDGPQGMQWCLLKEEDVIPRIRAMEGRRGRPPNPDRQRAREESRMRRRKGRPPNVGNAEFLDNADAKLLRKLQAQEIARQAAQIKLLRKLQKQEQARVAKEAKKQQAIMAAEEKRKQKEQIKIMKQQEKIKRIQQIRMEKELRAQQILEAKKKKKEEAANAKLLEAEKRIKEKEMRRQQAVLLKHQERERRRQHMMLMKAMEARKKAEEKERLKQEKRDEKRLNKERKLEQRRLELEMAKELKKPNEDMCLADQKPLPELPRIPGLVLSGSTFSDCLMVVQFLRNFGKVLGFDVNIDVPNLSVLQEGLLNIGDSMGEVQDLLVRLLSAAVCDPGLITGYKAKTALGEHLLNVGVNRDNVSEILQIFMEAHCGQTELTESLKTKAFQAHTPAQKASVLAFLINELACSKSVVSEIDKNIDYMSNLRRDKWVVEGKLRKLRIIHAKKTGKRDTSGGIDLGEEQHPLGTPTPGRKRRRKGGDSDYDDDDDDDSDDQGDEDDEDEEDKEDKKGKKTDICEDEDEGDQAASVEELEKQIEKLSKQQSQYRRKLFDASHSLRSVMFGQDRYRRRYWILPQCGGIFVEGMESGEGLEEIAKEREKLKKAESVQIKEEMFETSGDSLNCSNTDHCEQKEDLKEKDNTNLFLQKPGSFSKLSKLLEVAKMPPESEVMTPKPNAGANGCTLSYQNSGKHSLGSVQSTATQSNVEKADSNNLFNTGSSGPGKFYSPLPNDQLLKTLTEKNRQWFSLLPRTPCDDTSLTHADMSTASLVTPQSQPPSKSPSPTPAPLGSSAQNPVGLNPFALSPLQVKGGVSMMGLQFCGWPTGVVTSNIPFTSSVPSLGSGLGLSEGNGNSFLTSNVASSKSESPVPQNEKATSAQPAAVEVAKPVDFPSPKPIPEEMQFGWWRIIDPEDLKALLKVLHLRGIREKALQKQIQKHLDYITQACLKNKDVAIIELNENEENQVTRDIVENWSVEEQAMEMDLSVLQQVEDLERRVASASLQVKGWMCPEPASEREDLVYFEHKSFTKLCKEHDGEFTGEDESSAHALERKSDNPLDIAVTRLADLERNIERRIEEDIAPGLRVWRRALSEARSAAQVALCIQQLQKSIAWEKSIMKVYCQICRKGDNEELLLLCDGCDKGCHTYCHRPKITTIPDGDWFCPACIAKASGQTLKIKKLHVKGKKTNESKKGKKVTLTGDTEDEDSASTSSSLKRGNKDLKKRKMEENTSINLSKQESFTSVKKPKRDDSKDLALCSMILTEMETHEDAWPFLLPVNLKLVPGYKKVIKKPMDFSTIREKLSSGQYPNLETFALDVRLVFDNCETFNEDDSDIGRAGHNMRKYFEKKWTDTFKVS", "assay": "qHTS Assay for Inhibitors of BAZ2B; also: nearly all actives have a fitted effect of over 60% in size", "conditions": "AlphaScreen BAZ2B-H3K14Ac peptide displacement; activity change, negative = inhibition: at 114 µM (top of the series)", "procedure,_shortened": "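AlphaScreen displacement of biotin-H3(5-23)K14Ac peptide (50 nM final) from BAZ2B (50 nM final) in PBS pH 7.4, 0.01% Tween-20; complex preformed 30 min RT, then compounds (top 110 uM) 30 min RT, beads 20 min dark.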", "values": [
      {"compound": "O=[N+]([O-])c1cccc(NC(=S)NCc2ccncc2)c1", "activity change, negative = inhibition": "inactive: -13.7%"},
      {"compound": "CCN(CC)S(=O)(=O)c1cccc(NC(=O)COC(=O)/C=C/c2ccco2)c1", "Potency": "active: 50.1 µM"},
      {"compound": "Cc1ccccc1N(C(=O)CS(=O)CC(=O)Nc1ccc(F)cc1)C(C)C(=O)NC(C)(C)C", "note": "(stereo not drawn)", "activity change, negative = inhibition": "inactive: 3.07%"},
      {"compound": "COc1cc(OC)c2ccc(=O)oc2c1C(CCN1CCCCC1)c1ccc(N(C)C)cc1", "note": "(stereo not drawn)", "Potency": "active: 39.8 µM"},
      {"compound": "COc1ccc(CNCCC(c2ccc3c(c2)OCO3)c2ccccc2OC)cc1", "note": "(stereo not drawn)", "Potency": "inconclusive: 35.5 µM [inhibitor, partial curve]"},
      {"compound": "CC1(C)CC(/C=C/c2ccccc2)=Nc2ccccc2N1", "Potency": "inconclusive: 70.8 µM [inhibitor, partial curve]"},
      {"compound": "C[n+]1cc(C(=O)N2CCCCC2)ccc1/C=C/c1c[nH]c2ccccc12", "Potency": "inconclusive: 89.1 µM [inhibitor, single point]"},
      {"compound": "COc1cccc(NC(=O)CSc2nccn2C2CCCC2)c1", "Potency": "inconclusive: 39.8 µM [inhibitor, partial curve]"},
      {"compound": "CCOc1ccc(C2N(c3ccc(F)cc3)C(=O)C3CCCN32)cc1", "note": "(stereo not drawn)", "activity change, negative = inhibition": "inactive: -4.75%"},
      {"compound": "Cc1cccn2c(=O)c(C(=O)NCCc3ccccc3)cnc12", "activity change, negative = inhibition": "inactive: 6.09%"},
      {"compound": "FC(F)(F)c1ccccc1Nc1nccs1", "activity change, negative = inhibition": "inactive: -2.21%"},
      {"compound": "CCC(C)NC(=O)C1CCN(CCCc2ccccc2)CC1", "note": "(stereo not drawn)", "Potency": "active: 50.1 µM"},
      {"compound": "Cc1ccc2nc(NC(=O)c3ccc(N4C(=O)CCC4=O)cc3)sc2c1", "Potency": "inconclusive: 79.4 µM [inhibitor, single point]"},
      {"compound": "CC(CNC(=O)c1nnc(Cc2ccc(F)cc2)o1)c1ccccc1", "note": "(stereo not drawn)", "activity change, negative = inhibition": "inactive: -34.1%"},
      {"compound": "COc1cc2ncc(C(=O)c3ccc(C)cc3)c(N3CCCCC3)c2cc1OC", "Potency": "inconclusive: 39.8 µM [inhibitor, partial curve]"},
      {"compound": "O=C(O)c1ccc(N/N=C/c2ccc3ncccc3c2)cc1", "Potency": "inconclusive: 89.1 µM [inhibitor, single point]"},
      {"compound": "O=C(NCc1ccccc1)[C@@H]1C[C@H]1[C@@H](NP(=O)(c1ccccc1)c1ccccc1)c1ccccc1", "activity change, negative = inhibition": "inactive: -25%"},
      {"compound": "Nc1ccccc1OCCOCCOc1ccccc1N", "Potency": "inconclusive: 89.1 µM [inhibitor, single point]"},
      {"compound": "O=[N+]([O-])c1ccc(O)c(Nc2ncnc3ccc(Br)cc23)c1", "Potency": "inconclusive: 89.1 µM [inhibitor, single point]"},
      {"compound": "Cc1cc(N2CCN(C)CC2)nc2ccc(NC(=S)NCCCN3CCc4ccccc4C3)cc12", "Potency": "inconclusive: 50.1 µM [inhibitor, partial curve]"},
      {"compound": "CCC1=C(OC(=O)N(CC)CC)N2C(=O)OC(=NCCc3c[nH]c4ccccc34)[C@]2(Cc2ccccc2)[C@H]2C1=CC[C@H]1C(=O)N(CC)C(=O)[C@H]12", "Potency": "inconclusive: 79.4 µM [inhibitor, single point]"},
      {"compound": "C=CCN1C(=O)c2ccccc2NC1c1cc(Br)cs1", "note": "(stereo not drawn)", "activity change, negative = inhibition": "inactive: 11.5%"},
      {"compound": "CC(=O)N1CCn2c3ccc(C)cc3c3cccc1c32", "activity change, negative = inhibition": "inactive: 1.73%"},
      {"compound": "O=C(NCCC(=O)N(Cc1ccco1)Cc1cccs1)c1ccc([N+](=O)[O-])cc1", "Potency": "inconclusive: 89.1 µM [inhibitor, single point]"},
      {"compound": "O=[N+]([O-])c1ccc(N=Nc2ccc(O)cc2O)cc1", "Potency": "active: 31.6 µM"},
      {"compound": "NC(=O)CC[C@@H]1NC(=O)[C@H](CO)NC(=O)c2cc([N+](=O)[O-])cc(I)c2NCC[C@@H](C(N)=O)NC1=O", "Potency": "inconclusive: 79.4 µM [inhibitor, single point]"},
      {"compound": "CCCc1cc(C(=O)OC)c(NC(=O)CCCC(=O)O)s1", "activity change, negative = inhibition": "inactive: -9.76%"},
      {"compound": "COc1ccccc1CNC(=O)c1ccc2c(=O)n(CCCN3CCCC3=O)c(=S)[nH]c2c1", "Potency": "inconclusive: 79.4 µM [inhibitor, single point]"},
      {"compound": "COc1ccc(-c2csc(N3CCC(C(N)=O)CC3)n2)cc1", "Potency": "inconclusive: 89.1 µM [inhibitor, single point]"},
      {"compound": "CCOc1ccc(C2c3[nH]c4ccccc4c3CCN2C(=O)CSCc2ccc(F)cc2)cc1", "note": "(stereo not drawn)", "Potency": "inconclusive: 5.62 µM [inhibitor, full curve]"},
      {"compound": "COc1ccc(NC(=O)CSc2nnc(NC(=O)NC3CCCCC3)s2)cc1OC", "activity change, negative = inhibition": "inactive: -1.65%"},
      {"compound": "CCOC(=O)/C(C#N)=C/c1c(N2CCN(c3ccccc3)CC2)nc2ccccn2c1=O", "Potency": "inconclusive: 20 µM [inhibitor, partial curve]"},
      {"compound": "O=C(NCCN1CCc2ccccc2C1)C1CC(=O)N(C2CCCC2)C1", "note": "(stereo not drawn)", "Potency": "inconclusive: 89.1 µM [inhibitor, single point]"},
      {"compound": "Cn1c(=O)c2c(nc(N3CCN(Cc4ccccc4)CC3)n2CCCc2ccccc2)n(C)c1=O", "Potency": "inconclusive: 35.5 µM [inhibitor, full curve, poor fit]"},
      {"compound": "Cn1cccc1/C=N/NC(=O)CSc1nc2ccccc2n1C", "Potency": "inconclusive: 70.8 µM [inhibitor, single point]"},
      {"compound": "O=C(CNC(=S)NC(=O)c1ccc(Br)o1)c1ccccc1", "activity change, negative = inhibition": "inactive: 5.06%"},
      {"compound": "Cc1cc(Cl)cc2c1NC(=O)[C@]21[C@@H]2C(=O)N(Cc3ccccc3)C(=O)[C@@H]2[C@@H]2CCCN21", "Potency": "inconclusive: 50.1 µM [inhibitor, partial curve] and inconclusive: 70.8 µM [inhibitor, single point]"},
      {"compound": "CCCS(=O)(=O)N1CCN(Cc2ccccc2OCC)CC1", "activity change, negative = inhibition": "inconclusive: -89.5% [inhibitor]"},
      {"compound": "CC(=O)c1ccc(NS(=O)(=O)c2ccc3[nH]c4c(c3c2)CCCC4)cc1", "Potency": "active: 79.4 µM"},
      {"compound": "Cc1cc(C)c(S(=O)(=O)N2CCN(c3ccc([N+](=O)[O-])c(-n4nc(C)cc4C)c3)CC2)c(C)c1", "Potency": "inconclusive: 28.2 µM [inhibitor, full curve, poor fit]"},
      {"compound": "CCCC(=O)Nc1nc2nc(C)cc(=O)n2[nH]1", "Potency": "inconclusive: 89.1 µM [inhibitor, single point]"},
      {"compound": "CCC1SC(=NC(=O)c2ccc(Cl)c(Cl)c2)NC1=O", "note": "(stereo not drawn)", "Potency": "inconclusive: 100 µM [inhibitor, single point]"},
      {"compound": "CCOC(=O)[C@@H]1[C@H]2COc3ccccc3[C@@H]2N2C(=O)N(c3ccc(Cl)cc3)C(=O)[C@]12C", "activity change, negative = inhibition": "inactive: -2.61%"},
      {"compound": "CCCN(CCC)CCCNc1ccc(C(=O)Nc2cccc(OC)c2)cc1[N+](=O)[O-]", "Potency": "inconclusive: 31.6 µM [inhibitor, partial curve]"},
      {"compound": "CCOC(=O)C1(Cc2cccc(F)c2)CCN(Cc2nc(CC)[nH]c2C)CC1", "Potency": "inconclusive: 22.4 µM [inhibitor, full curve]"},
      {"compound": "O=C1N=c2ccccc2=C1c1c(O)n(-c2cccc(F)c2)[nH]c1=O", "Potency": "inconclusive: 89.1 µM [inhibitor, single point]"},
      {"compound": "N#C/C(=C/c1ccc(O)c(O)c1)C(=O)NCc1ccc(Cl)cc1", "Potency": "active: 35.5 µM"},
      {"compound": "CCOc1ccccc1Nc1nc(-c2cccc(Cl)c2)c2c(n1)-c1ccccc1OC2", "Potency": "inconclusive: 50.1 µM [inhibitor, partial curve]"},
      {"compound": "O=C(Nc1ccc(Cl)cc1)C1CCN(C(=O)c2ccco2)CC1", "activity change, negative = inhibition": "inactive: -0.0887%"},
      {"compound": "CCOc1ccc(C(C(=O)NC2CCCC2)N(CCCO)C(=O)c2ccc(-c3ccccc3)[nH]2)cc1", "note": "(stereo not drawn)", "Potency": "inconclusive: 44.7 µM [inhibitor, partial curve]"},
      {"compound": "COC(=O)c1ccccc1NC(=S)NC(=O)c1cccc2ccccc12", "Potency": "inconclusive: 39.8 µM [inhibitor, full curve, poor fit]"},
      {"compound": "Cc1cc(C)c(C#N)c(SCC(=O)OC2CCCCC2)n1", "activity change, negative = inhibition": "inactive: 119%"},
      {"compound": "Cc1ccc(C)c(N2N=C(C(=O)Nc3ccccc3N3CCCC3)CCC2=O)c1", "Potency": "active: 35.5 µM"},
      {"compound": "CN(C)c1ccc(/C=C/C(=O)c2ccc(O)cc2)cc1[N+](=O)[O-]", "Potency": "inconclusive: 35.5 µM [inhibitor, partial curve]"},
      {"compound": "COc1cccc(C(=O)c2sc(NC(C)C)nc2N)c1", "Potency": "inconclusive: 89.1 µM [inhibitor, single point]"},
      {"compound": "CCOC(=O)CSc1nc2ccc(NC(=O)c3ccc(F)cc3)cc2s1", "Potency": "inconclusive: 89.1 µM [inhibitor, single point]"},
      {"compound": "O=C(O)CSCC(=O)Nc1ccc(C(=O)O)cc1", "Potency": "inconclusive: 100 µM [inhibitor, single point]"},
      {"compound": "COc1ccc(NC(=O)c2sc3nc4c(cc3c2N)CN(C(C)C)CC4)c(OC)c1", "Potency": "inconclusive: 35.5 µM [inhibitor, partial curve]"},
      {"compound": "Cc1cccc(C(=O)NCC(c2ccc3c(c2)OCO3)N2CCN(c3ccccc3F)CC2)c1", "note": "(stereo not drawn)", "Potency": "inconclusive: 25.1 µM [inhibitor, full curve, poor fit]"},
      {"compound": "COc1cccc(/C(C)=N/NC(=O)c2ccc(N(C)C)cc2)c1", "activity change, negative = inhibition": "inactive: -29.6%"},
      {"compound": "CC(=O)Nc1ccc(S(=O)(=O)Nc2ccc(-c3ccc4nnc(C)n4n3)cc2)cc1", "Potency": "inconclusive: 79.4 µM [inhibitor, single point]"},
      {"compound": "Cc1[nH]c2ccc(C(=O)NCCCN3CCN(C)CC3)cc2c1C", "Potency": "inconclusive: 70.8 µM [inhibitor, partial curve, poor fit]"},
      {"compound": "COc1ccc(-n2c(C)cc(/C=N/Nc3nnc(C)n3N)c2C)cc1", "Potency": "inconclusive: 50.1 µM [inhibitor, partial curve]"},
      {"compound": "O=C(COC(=O)c1ccc(S(=O)(=O)NCc2ccco2)cc1)NCCC1=CCCCC1", "Potency": "inconclusive: 100 µM [inhibitor, single point]"},
      {"compound": "CC(=O)Nc1cccc(OCC(=O)/C=C2\\N(C)c3ccccc3C2(C)C)c1", "Potency": "inconclusive: 79.4 µM [inhibitor, single point]"},
      {"compound": "COc1ccc(NC(=O)CN(C)C2CCCCC2)cc1Cl", "activity change, negative = inhibition": "inactive: 1.44%"},
      {"compound": "Cc1cc(C)c(OCCCCCn2ccnc2)c(C)c1", "Potency": "inconclusive: 39.8 µM [inhibitor, partial curve]"},
      {"compound": "Cc1ccc(NC(=S)N(CCCN2CCOCC2)Cc2ccco2)cc1C", "Potency": "inconclusive: 79.4 µM [inhibitor, single point]"}
    ]}
  ]
}
